Results taken from patent US20100197962A1 (priority 2005, published 2010).

System: inverse tolerance induced by chronic treatment with morphine
Assay: Inverse tolerance (increased sensitivity) induced by chronic treatment with morphine, locomotor activity
Conditions: morphine 10 mg/kg s.c. given acutely only on the 7th day

CN1CC[C@]23c4c5ccc(O)c4O[C@H]2[C@@H](O)C=C[C@H]3[C@H]1C5 [Morphine, morphine]
% increase vs. physiological saline: 80.3%
Total distance (cm): 5050 cm
